The list shows a part of the results.
What follows are molecules tested on T1, C. trachomatis L2/434/Bu expressing GFP (CTL2-GFP). Settings: total inclusion area; 28.5 h, 10 µM; inhibitor.
T1 construct: L2/434/Bu GFP intracellular growth in HeLa cells
Set-up: species or system HeLa; C. trachomatis total inclusion area by high-content imaging, normalised to DMSO
Method in brief: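 High-content images of fixed, Hoechst-stained infected cultures supply inclusion area and count (growth) plus nuclei number (viability), complementing bulk GFP/resorufin fluorescence. MIC determination is unchanged from the primary assay.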
Cc1ccc(-c2n[nH]c(=O)o2)cc1Br [CBK288443] was tested, and the “% of control remaining” value was 99.8202. With OCCCc1[nH]nc(-c2ccc(Cl)cc2)c1Br [CBK006993] the “% of control remaining” value was 48.5351. With COc1ccc(C(CNC(=O)C2C(C(=O)O)C2(C)C)N(C)C)cc1 (stereo not shown) [CBK286700] the “% of control remaining” value was 92.3044. In the case of Cc1noc(C)c1S(=O)(=O)Nc1c(C(=O)Nc2ccc(F)cc2)[nH]c2ccccc12 [CBK050099], the “% of control remaining” value is reported as 92.7772. For COCCN1C(=O)c2ccc(C(=O)c3ccc4c(c3)C(=O)N(CCOC)C4=O)cc2C1=O [CBK268641], the “% of control remaining” value was 141.915. In the case of CC(Nc1cccc2ccccc12)C(=O)N/N=C/c1c(O)ccc2ccccc12 (stereo not shown) [CBK262678], the “% of control remaining” value is reported as 41.2203. With COC(=O)CN1CCCC[C@H]2CN(C(=O)C3CCC3)C[C@H]21 [CBK285496] the “% of control remaining” value was 83.7656. For Cc1nn(CCC(=O)NCCN2CCC(C)CC2)c(C)c1Cl [CBK281571], the “% of control remaining” value was 66.2354. With Cc1csc(C(Cc2ccsc2)NC(=O)CCn2cccn2)n1 (stereo not shown) [CBK285149] the “% of control remaining” value was 86.0876. In the case of COc1ccc(C)cc1S(=O)(=O)N1CCN(C(c2ccccc2)c2ccccc2)CC1 [CBK263977], the “% of control remaining” value is reported as 80.3074. CC(=O)N(C)c1ccc(NC(=O)c2ccccc2C(=O)O)cc1 [CBK270693] was tested, and the “% of control remaining” value was 111.291. With Cc1cc2ccccc2n1CC(=O)N1CCn2cnnc2C1 [CBK282209] the “% of control remaining” value was 103.544. For O=C(O)/C=C/C(=O)Nc1ccccc1C(=O)O [CBK261461], the “% of control remaining” value was 93.7651. With O=[N+]([O-])c1ccc(N(CCO)CCO)c2nonc12 [CBK261447] the “% of control remaining” value was 91.7322. CC(NC(=O)N1CCN(CCc2ccccc2)CC1)c1ccccc1 (stereo not shown) [CBK158935] was tested, and the “% of control remaining” value was 83.2558. With CCCC/C=C/c1cncc(N[C@H](CO)C(C)C)n1 [CBK065314] the “% of control remaining” value was 111.201. In the case of C[C@@H]1CN(C(=O)c2ccc3[nH]nnc3c2)C[C@H](C)O1 [CBK200369], the “% of control remaining” value is reported as 69.9981. With COc1ccc(C(=O)N2CCN(Cc3cccnc3)CC2)cc1OC [CBK263321] the “% of control remaining” value was 92.8629. COc1ccc(N2CCN(c3nccnc3-c3ccc(C(C)=O)s3)CC2)cc1OC [CBK036968] was tested, and the “% of control remaining” value was 79.8322. For Cc1ccc2oc(CN3CCC(O)(c4cccnc4)CC3)c(C)c2c1 [CBK282816], the “% of control remaining” value was 78.1067. In the case of NCCCNC(=O)c1ccc(/C=N/O)nc1 [CBK264524], the “% of control remaining” value is reported as 131.272. With c1cc(OCc2cccs2)cc(N2CCNCC2)c1 [CBK022557F] the “% of control remaining” value was 53.9457. CC(C)C1C2CCCCC2=NN1C(=O)/C=C/C(=O)O (stereo not shown) [CBK286862] was tested, and the “% of control remaining” value was 115.344. For O=C(NCCc1ccccc1)c1ccccc1NS(=O)(=O)N1CCCC1 [CBK268407], the “% of control remaining” value was 103.928. For O=C(COc1ccc2oc3c(c2c1)CCCC3)Nc1ccncc1 [CBK266227], the “% of control remaining” value was 103.137. COCC(=O)N1CCc2sccc2C1c1ccc(NC(=O)c2cccc(F)c2)cc1 (stereo not shown) [CBK286468] was tested, and the “% of control remaining” value was 99.9899. For CC(=O)NCCCCCC(=O)Nc1ccc(Cl)cn1 [CBK091341], the “% of control remaining” value was 99.4662. In the case of NS(=O)(=O)c1ccc(NC(=S)NNC(=O)c2cc(Br)ccc2Cl)cc1 [CBK266970], the “% of control remaining” value is reported as 87.5982. In the case of CN(C)C[C@H]1CC[C@]2(CC1)CN(C(=O)C1CC1)Cc1ccccc1O2 [CBK284920], the “% of control remaining” value is reported as 91.4455. With O=C(c1ccc2c(c1)OCCO2)N1CCN(C(=O)c2ccco2)CC1 [CBK144480] the “% of control remaining” value was 101.314. Cc1ccc(OCCCC(=O)Nc2ccc(C(N)=O)cc2)c(C)c1 [CBK268032] was tested, and the “% of control remaining” value was 93.0656. In the case of O=C(N[C@H]1CCN2C(=O)[C@@H](Cc3ccccc3)NC(=O)[C@H]12)c1cnccn1 [CBK289231], the “% of control remaining” value is reported as 98.7426. In the case of COc1ccc2c(c1)c(C(=O)N1CCn3nc(CO)cc3C1)c(C)n2C [CBK306764], the “% of control remaining” value is reported as 63.1512. For COc1cc(OC)nc(C(NC(=O)C2CCN(C(=O)c3ccccc3)CC2)c2ccccc2)n1 (stereo not shown) [CBK059650], the “% of control remaining” value was 88.9131. With O=C(COc1ccccc1)Nc1ccc2oc(-c3cccnc3)nc2c1 [CBK262959] the “% of control remaining” value was 109.633. CCCCOc1nccnc1-c1cnn(C)c1 [CBK107085] was tested, and the “% of control remaining” value was 108.74. With CC(NCc1ccc(S(N)(=O)=O)cc1)=C1C(=O)c2ccccc2C1=O [CBK262692] the “% of control remaining” value was 92.9845. In the case of CCCCCOc1ccc(-c2ccc(Cl)nn2)cc1 [CBK007044], the “% of control remaining” value is reported as 5.271. With CC(C)(C)c1ccc(OCC(=O)Nc2ccc(S(=O)(=O)N3CCc4ccccc43)cc2)cc1 [CBK265352] the “% of control remaining” value was 83.7495. For NC(=O)C1CCN(C(=O)CN(c2ccccc2)S(=O)(=O)c2ccccc2[N+](=O)[O-])CC1 [CBK265320], the “% of control remaining” value was 107.239. In the case of FC(F)(F)c1[nH]c2ncccc2c1CN1CCSCC1 [CBK283257], the “% of control remaining” value is reported as 108.193. With CCn1cc(CN2C3CCC2CC(O)(c2cccc(F)c2)C3)c(C)n1 (stereo not shown) [CBK282755] the “% of control remaining” value was 109.699. COc1cc(C#N)ccc1OCc1ccccc1 [CBK002577] was tested, and the “% of control remaining” value was 43.4845. In the case of O=C(NCCN1CCCCC1)C1CC(=O)N(Cc2ccncc2)C1 (stereo not shown) [CBK306629], the “% of control remaining” value is reported as 84.3217. In the case of CCOc1cccc(OCC(=O)N2CCC(c3cc(C(=O)NC)c4ccccc4n3)C2)c1 (stereo not shown) [CBK285896], the “% of control remaining” value is reported as 128.875. Oc1ccc(/N=N/c2cccc(Br)c2)cc1/C=N/c1ccc(-c2nc3ncccc3o2)cc1 [CBK262009] was tested, and the “% of control remaining” value was 90.9654. For COc1cccc(Nc2cc(-c3ccc(N4CCOCC4)cc3)ncn2)c1 [CBK090733], the “% of control remaining” value was 50.3201. With Cc1cccc(CN(CC(C)(C)CN)C(=O)Nc2ccccc2C(F)(F)F)n1 [CBK002409C] the “% of control remaining” value was 57.3391. COCCNC(=O)C1CCCCC1C(=O)O (stereo not shown) [CBK269135] was tested, and the “% of control remaining” value was 64.0703. For CC1(C)CN(c2ccc(Cl)cn2)C1=O [CBK018550], the “% of control remaining” value was 46.1445. For O=C1c2ccc(Oc3cccc([N+](=O)[O-])c3)cc2C(=O)N1c1ccccn1 [CBK261190], the “% of control remaining” value was 89.7583. O=C(C1CCCO1)N1CCC(c2ccc(F)cc2)CC1 (stereo not shown) [CBK283484] was tested, and the “% of control remaining” value was 114.055.
